Laboratory results as given in the supplement of paper PMC12217912.
Some of the results follow. Sequences were assembled here from the parent chain. Values near 0.05 are background.

B1: TEV protease; numbered along this chain (parent)
chain: MGESLFKGPRDYNPISSSICHLTNESDGHTTSLYGIGFGPFIITNKHLFRRNNGTLVVQSLHGVFKVKDTTTLQQHLVDGRDMIIIRMPKDFPPFPQKLKFREPQREERICLVTTNFQTKSMSSMVSDTSCTFPSGDGIFWKHWIQTKDGQCGSPLVSTRDGFIVGIHSASNFTNTNNYFTSVPKNFMELLTNQEAQQWVSGWRLNADSVLWGGHKVFMVKPEEPFQPVKEATQL

Variants of: B1
Experiment: raw area under fraction-flipped curve 0-4 h after induction (AUC4h, not background-subtracted), DNA-recorder readout of cleavage of the substrate (dimensionless); higher = more cleavage of the substrate by the protease variant
Settings: temperature: 34 °C; time window: 0-4 h after rhamnose induction
Experimental: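 In vivo DNA recorder in E. coli TOP10(DE3) ΔrhaA at 34 °C. Each TEVp single-site mutant (parent TEVp 0) is paired with a single-site variant of the 7-mer TEVs (canonical ENLYFQ|S). The substrate sits between flexible linkers in a Bxb1-sfGFP-TEVs-SsrA fusion, so cleavage stabilises Bxb1 and speeds flipping of a recombination array, read by NGS. The value is the raw area under the fraction-flipped curve over 0-4 h after rhamnose induction (AUC4h), with ≥20 reads per time point. It is not background-subtracted; inactive controls average about 0.047.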
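Note: Bxb1 expression induced with 0.2% (w/v) L-rhamnose at OD600 near 0.5, cultures sampled hourly, flipped fraction per protease–substrate barcode pair counted by paired-end Illumina sequencing.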

| Variant | area with substrate ENLYFAS | area with substrate ENLYFCS | area with substrate ENLYFDS | area with substrate ENLYFES | area with substrate ENLYFFS | area with substrate ENLYFGS | area with substrate ENLYFIS | area with substrate ENLYFKS | area with substrate ENLYFLS | area with substrate ENLYFMS | area with substrate ENLYFPS | area with substrate ENLYFSS | area with substrate ENLYFTS | area with substrate ENLYFVS | area with substrate ENLYFWS | area with substrate ENLYFHS | area with substrate ENLYFNS | area with substrate ENLYFRS | area with substrate ENLYFYS |
| --- | --- | --- | --- | --- | --- | --- | --- | --- | --- | --- | --- | --- | --- | --- | --- | --- | --- | --- | --- |
| K46M | 0.0455 | 0.0572 | 0.0608 | 0.0532 | 0.055 | 0.0538 | 0.0575 | 0.0638 | 0.0582 | 0.0603 | 0.0615 | 0.0572 | 0.0608 | 0.0534 | 0.0608 |  |  |  |  |
| K46T | 0.0635 | 0.0546 | 0.0569 | 0.0608 | 0.0548 |  | 0.058 | 0.057 | 0.0345 | 0.0668 |  |  | 0.0589 |  |  | 0.0505 | 0.0512 |  |  |
| K46A | 0.0583 | 0.0632 | 0.061 | 0.0508 | 0.0702 |  | 0.0471 | 0.0573 | 0.0835 | 0.0695 | 0.0624 | 0.0533 | 0.0465 | 0.063 | 0.0341 | 0.0491 | 0.0651 | 0.0629 | 0.0543 |
| K46C | 0.0573 | 0.0647 | 0.0483 | 0.0549 | 0.06 |  | 0.0496 | 0.0596 |  | 0.0587 | 0.0653 | 0.0668 | 0.0582 |  |  |  |  | 0.0517 |  |
| I86V | 0.0574 | 0.0562 | 0.0497 | 0.0615 | 0.0721 | 0.06 | 0.0537 | 0.0547 |  | 0.0722 | 0.0602 |  | 0.0646 | 0.0454 | 0.0603 |  | 0.0662 | 0.0469 | 0.055 |
| I84E | 0.0389 |  |  | 0.0532 | 0.0717 | 0.0548 | 0.0486 | 0.0567 | 0.0524 | 0.0446 | 0.0524 | 0.0436 |  |  | 0.0202 | 0.0646 | 0.0516 | 0.0438 | 0.05 |
| I84G | 0.0451 |  | 0.0559 | 0.0543 | 0.0608 | 0.0419 | 0.0536 |  | 0.0613 | 0.063 | 0.0515 | 0.0527 | 0.0518 | 0.0459 |  | 0.0566 | 0.0397 | 0.0427 | 0.0456 |
| H62A | 0.0907 | 0.0484 |  |  |  |  | 0.0524 |  |  | 0.0501 | 0.0773 | 0.0555 | 0.0649 | 0.0139 |  |  | 0.0945 | 0.0743 | 0.0425 |
| H47E | 0.059 | 0.0649 | 0.0557 | 0.0579 |  |  | 0.0639 | 0.0887 |  | 0.0595 | 0.0704 | 0.0688 |  |  | 0.0504 | 0.0458 | 0.0427 | 0.0611 |  |
| T55S | 0.0493 | 0.0642 |  | 0.0452 | 0.0622 |  | 0.0584 | 0.0515 |  | 0.0718 | 0.0596 |  | 0.0541 | 0.0663 | 0.0591 | 0.0489 | 0.0598 | 0.0604 | 0.0795 |
| H76R | 0.0617 | 0.0682 |  | 0.0936 | 0.0697 |  | 0.052 | 0.0528 | 0.0611 | 0.042 | 0.0573 | 0.0475 | 0.0586 | 0.0444 | 0.0718 |  | 0.0575 |  | 0.0623 |
| T70E | 0.0576 |  | 0.0413 | 0.0824 | 0.078 |  | 0.054 |  |  | 0.0501 | 0.0614 | 0.047 | 0.0405 | 0.0441 |  |  | 0.0529 |  | 0.0497 |
| K90W | 0.0364 | 0.0623 | 0.0646 | 0.0718 | 0.0982 |  | 0.0526 |  |  | 0.0509 | 0.0598 | 0.0607 |  | 0.0515 | 0.0543 | 0.0639 | 0.065 | 0.0609 | 0.0623 |
| D69E | 0.0566 | 0.0609 | 0.0571 | 0.073 | 0.0787 | 0.0736 | 0.0661 | 0.0608 | 0.0528 | 0.0626 | 0.0442 | 0.0541 | 0.0575 | 0.0569 | 0.0588 |  | 0.0687 | 0.0481 |  |
| L73I | 0.0567 | 0.0605 |  | 0.0631 | 0.0642 | 0.0707 | 0.055 | 0.0516 | 0.0687 | 0.0593 | 0.0685 | 0.0609 | 0.0612 |  | 0.0484 |  | 0.0587 | 0.0513 | 0.0553 |
| P89S | 0.0543 | 0.064 | 0.052 | 0.068 | 0.0727 |  | 0.0573 |  | 0.0553 | 0.0639 | 0.0601 | 0.0641 | 0.06 | 0.0339 | 0.0378 | 0.0538 | 0.0694 | 0.0683 | 0.054 |
| P89N | 0.0494 |  | 0.0464 |  | 0.0741 |  | 0.0651 | 0.0642 |  | 0.063 |  |  | 0.0488 | 0.0452 | 0.052 | 0.068 | 0.0624 |  | 0.0348 |
| P93M | 0.0394 |  | 0.108 | 0.0547 | 0.12 | 0.0649 | 0.0272 | 0.0798 | 0.0999 | 0.0726 | 0.0578 | 0.0838 | 0.0673 | 0.048 | 0.0569 |  | 0.0625 | 0.0777 |  |
| R50P | 0.0506 | 0.0639 | 0.0687 | 0.0675 | 0.0722 | 0.0595 | 0.0445 | 0.0661 |  | 0.0603 | 0.0547 | 0.056 | 0.0729 | 0.0761 | 0.0617 | 0.0645 | 0.0603 |  | 0.0607 |
| R50H | 0.0659 | 0.065 | 0.0625 |  | 0.0309 | 0.0635 | 0.0639 |  |  | 0.0662 |  |  | 0.0623 | 0.0553 | 0.0636 | 0.0766 |  | 0.0598 |  |
| L61W | 0.0419 | 0.0554 | 0.0611 | 0.0623 | 0.0441 |  | 0.0631 | 0.06 | 0.0752 | 0.0581 | 0.0581 | 0.066 | 0.0553 | 0.0535 | 0.0576 | 0.0631 | 0.0741 | 0.0575 | 0.0603 |
| G54V | 0.054 | 0.0607 | 0.0672 | 0.0552 | 0.0772 | 0.062 | 0.052 | 0.0552 |  | 0.0464 | 0.0608 | 0.0597 | 0.0515 | 0.0595 | 0.0631 |  | 0.0586 |  |  |
| F65G | 0.0652 |  | 0.0693 | 0.0748 | 0.0647 | 0.039 | 0.0544 | 0.0521 |  | 0.0646 | 0.0616 | 0.053 |  | 0.0629 | 0.0487 |  | 0.0587 | 0.0569 | 0.0784 |
| F65L | 0.0523 |  |  |  |  | 0.0676 | 0.0508 |  |  | 0.0598 | 0.0474 |  |  |  | 0.0451 |  | 0.0589 | 0.0555 | 0.0429 |
